Test results: PMC4336329 (PLoS ONE, 2015)
Among all 310,000 compounds or so, about 14,000 (4.5%) showed an effect of 50% or more. Effects have a minus sign here. Some of the results follow.

target: human ether-à-go-go-related gene (hERG) potassium channel (human, UniProt Q12809); assay: primary screen, population patch clamp on CHO cells stably expressing hERG
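Note: peak tail current of the secondary pulse compared with the same well before compound.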

Chain of human ether-à-go-go-related gene (hERG) potassium channel (Q12809 whole entry, looked up): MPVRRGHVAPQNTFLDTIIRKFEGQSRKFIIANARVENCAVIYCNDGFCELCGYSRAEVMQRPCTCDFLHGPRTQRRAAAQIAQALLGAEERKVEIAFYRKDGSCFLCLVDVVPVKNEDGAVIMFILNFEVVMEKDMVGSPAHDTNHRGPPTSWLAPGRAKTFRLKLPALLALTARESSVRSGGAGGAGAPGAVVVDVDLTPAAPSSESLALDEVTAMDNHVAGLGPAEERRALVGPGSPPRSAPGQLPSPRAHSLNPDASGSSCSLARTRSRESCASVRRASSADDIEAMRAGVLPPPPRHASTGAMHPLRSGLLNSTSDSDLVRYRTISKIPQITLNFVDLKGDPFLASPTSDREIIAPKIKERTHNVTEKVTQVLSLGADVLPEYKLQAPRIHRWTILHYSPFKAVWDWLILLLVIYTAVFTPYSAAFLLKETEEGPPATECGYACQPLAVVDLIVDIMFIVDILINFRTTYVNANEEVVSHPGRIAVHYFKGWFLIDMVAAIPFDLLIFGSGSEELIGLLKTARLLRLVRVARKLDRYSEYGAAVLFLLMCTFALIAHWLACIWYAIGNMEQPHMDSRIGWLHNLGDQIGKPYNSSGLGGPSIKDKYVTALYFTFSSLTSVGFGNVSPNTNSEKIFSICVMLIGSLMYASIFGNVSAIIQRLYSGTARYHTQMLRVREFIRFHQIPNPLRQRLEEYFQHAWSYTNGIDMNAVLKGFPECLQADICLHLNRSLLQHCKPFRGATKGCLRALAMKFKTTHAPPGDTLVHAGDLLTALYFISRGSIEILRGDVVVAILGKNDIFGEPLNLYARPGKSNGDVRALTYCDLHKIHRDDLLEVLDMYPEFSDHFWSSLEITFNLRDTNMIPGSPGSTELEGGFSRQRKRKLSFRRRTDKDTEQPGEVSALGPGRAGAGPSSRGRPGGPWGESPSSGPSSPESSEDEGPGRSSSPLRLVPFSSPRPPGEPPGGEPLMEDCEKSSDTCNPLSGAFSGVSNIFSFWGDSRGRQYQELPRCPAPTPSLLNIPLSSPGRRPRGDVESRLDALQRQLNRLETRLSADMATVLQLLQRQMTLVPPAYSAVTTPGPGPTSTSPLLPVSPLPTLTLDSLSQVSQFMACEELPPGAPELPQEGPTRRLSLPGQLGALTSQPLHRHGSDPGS

Row | SMILES | hERG current change (%, negative = inhibition) at 10uM [%]
1 | COc1cccc(CC(=O)NCCCSc2ccccc2)c1 | -14.8
2 | CNCCCCOc1ccccc1-c1ccccc1.O=C(O)C(=O)O | -6.39
3 | COc1ccc2c(c1)[nH]c1c(=O)n(CC3CCCO3)cnc12 (stereo not drawn) | 11.1
4 | CCc1ccccc1NC(=O)CN(C)C(=O)c1cccc(S(=O)(=O)N2CCCCCC2)c1 | -25
5 | Cc1ccsc1C1C=C(c2cccc(Br)c2)Nc2ncnn21 (stereo not drawn) | -16.2
6 | Cc1cc(C)cc(N(C(=O)c2csnn2)C(C(=O)NC(C)(C)C)c2ccncc2)c1 (stereo not drawn) | -2.36
7 | COc1ccc(N(CC(=O)Nc2ccccc2C(N)=O)S(=O)(=O)c2ccc(C)c([N+](=O)[O-])c2)cc1 | -20.4
8 | COc1ccc(C(=O)NCC(=O)N/N=C/c2c(C)[nH]c3ccccc23)cc1 | 14.7
9 | CC(C)(C)Nc1nc(Cl)nc(NC2CCCCC2)n1 | -3.85
10 | COC(=O)c1ccc(C(=O)OC)c(NC(=O)CSCc2ccc(Br)cc2)c1 | 12.2
11 | CCOC(=O)N1CCN(CC(=O)Nc2cccc(Br)c2)CC1 | -18.9
12 | CC/C(=N\NC(=O)CNC(=O)/C=C/c1ccc(OC)cc1)c1ccccc1 | 10.5
13 | COc1cccc(/C=C/C(=O)OCC(=O)N(C)CC(=O)Nc2ccccc2Cl)c1OC | -4.44
14 | O=C(N/N=C/c1ccccc1)c1ccco1 | 10.1
15 | CN(Cc1ccon1)C(=O)CC1C(=O)NCCN1Cc1ccc(Cl)c(F)c1 (stereo not drawn) | -8.07
16 | Cc1c(-c2ccccc2)n[nH]c1C(=O)NN | 0.0356
17 | Cc1cc2c(C)cc(=O)oc2c2c1NCCC2 | -9.52
18 | COc1cccc(/C=N/NC(=O)C(=O)N2CCCC2)c1 | -2.09
19 | COc1cc(/C=N/NC(=S)Nc2cccc(Cl)c2C)ccc1OCC(=O)N1CC(C)OC(C)C1 (stereo not drawn) | -36

Row | SMILES | hERG current change (%, negative = inhibition) at 10uM [%]
20 | COc1ccc(-c2oc3cc(O)c(OC)c(O)c3c(=O)c2OC)cc1 | -1.29
21 | Cc1cc(N2CCOCC2)c2c(N)c(C)cc(C)c2n1 | -24.6
22 | CC1(c2ccccc2)NC(=O)N(CC(=O)Nc2nnc(C3CC3)s2)C1=O (stereo not drawn) | 12.1
23 | Cc1occc1C(=O)Nc1ccc(S(N)(=O)=O)cc1 | 29.3
24 | CCN(CC)S(=O)(=O)c1cc(C(=O)NC2CCCCC2)ccc1C | -45.3
25 | Cc1ccc(-c2noc(CN(C(=O)CCN3C(=O)c4ccccc4C3=O)C(C)C)n2)cc1 | -63.6
26 | CCOc1cc(/C=C2/NC(=O)NC2=O)cc([N+](=O)[O-])c1O | 15.3
27 | CCn1c(SCC(=O)Nc2nc(-c3ccc(C)cc3)cs2)nnc1-c1ccccc1O | 5.72
28 | NC(=O)CC(NC(=O)Cc1ccc(Cl)cc1)c1ccc(NCCCN2CCCC2=O)c([N+](=O)[O-])c1 (stereo not drawn) | 3.1
29 | Cc1ccc(/C=C/C(=O)NCc2ccccn2)o1 | -26.4
30 | COC(=O)c1ccc(Cn2cnc3c(sc4nc(N5CCOCC5)c5c(c43)CCCC5)c2=O)o1 | 3.43
31 | O=C1c2ccccc2-c2nccnc21 | 2.35
32 | Cc1cc(C)c(C#N)c(SC2CCCCC2=O)n1 (stereo not drawn) | 5.19
33 | CC(Sc1nnc(C2CC2)n1C1CC1)C(=O)Nc1ccc(C(N)=O)cc1 (stereo not drawn) | -21.4
34 | NC(=O)c1nn(-c2cccc(Cl)c2)c(=O)cc1O | 2.23
35 | COC(=O)C1=C(C)Nc2c(c(=O)n(C)c(=O)n2C)C1c1cccs1 (stereo not drawn) | 6.87
36 | O=C(CN1CC(=O)Oc2ccccc21)OCC(=O)c1ccc(F)cc1 | 10.2
37 | COc1cccc(C2CC(c3ccccc3Cl)Nc3nc(N)nn32)c1 (stereo not drawn) | -13.6
38 | COc1ccc(N(C(=O)/C=C/c2ccccc2)C2=CC3CCC(C2)N3C)cc1.Cl (stereo not drawn) | -74.6

Row | SMILES | hERG current change (%, negative = inhibition) at 10uM [%]
39 | CCNC(=O)CCSc1nc2cc(Cl)ccc2o1 | 6.15
40 | COc1ccc(C2=NN(C(=O)CSc3nnnn3C)C(c3ccco3)C2)cc1 (stereo not drawn) | 3.05
41 | COc1ccc(-c2c(NC(=O)c3ccco3)n(-c3ccccc3)nc(C)c2=O)cc1 | 11
42 | O=C(COC(=O)c1ccccc1)NCc1ccco1 | 15.8
43 | Cc1ccc(CNC(=O)C(Cc2ccccc2)NS(=O)(=O)c2ccc(Br)s2)cc1 (stereo not drawn) | 0.563
44 | Cc1ccn2c(C(=O)NN=C3CCN(C)CC3)c(C)nc2c1 | 17.3
45 | COc1ccccc1-c1cc(SC)c(C#N)c(=O)o1 | 8.85
46 | Cc1c(OCC(=O)NC2CC(C)(C)NC(C)(C)C2)ccc2c1oc(=O)c1ccccc12 | -19.4
47 | C/C(=N/NC(=O)c1ccc2c(c1)OCO2)c1cccc([N+](=O)[O-])c1 | -10.1
48 | CC(C)OCCCNC(=O)CN1C(=O)COc2ccc(S(=O)(=O)N3CCCCCC3)cc21 | 4.01
49 | Cc1ccccc1CS(=O)(=O)CC(O)CN1CCCC1=O (stereo not drawn) | 12.1
50 | CC(C)c1ccc2oc(=O)cc(CN3CCOCC3)c2c1 | 17.1
51 | CCOc1ccccc1NC(=O)CSc1nnc(CNC(=O)COc2ccc(Cl)cc2)o1 | -11.9
52 | Cc1ccc(S(=O)(=O)N(C)C)cc1NC(=O)COC(=O)CNC(=O)c1cccs1 | 14.5
53 | COc1cc2[nH]c(=S)nc(NCc3ccc(Cl)cc3)c2cc1OC | -3.55
54 | O=C(NCCC1=CCCCC1)c1ccc(CN2CCOCC2)cc1 | -3.02
55 | COc1ccc(C(=O)/C=C/Nc2ccc(S(=O)(=O)Nc3nc(C)cc(C)n3)cc2)cc1OC | 0.839
56 | O=C(c1cccnc1)N1CCN(Cc2ccc3c(c2)OCO3)CC1 | -14
57 | CCCn1nnc(NC(=S)NC(=O)c2ccc(-c3ccc(Br)cc3)o2)n1 | 6.47
